# The list shows a part of the results.
# Target: T1, MBP-FoxP1dN (Mus musculus, UniProt P58462 326-579)
# T1 sequence: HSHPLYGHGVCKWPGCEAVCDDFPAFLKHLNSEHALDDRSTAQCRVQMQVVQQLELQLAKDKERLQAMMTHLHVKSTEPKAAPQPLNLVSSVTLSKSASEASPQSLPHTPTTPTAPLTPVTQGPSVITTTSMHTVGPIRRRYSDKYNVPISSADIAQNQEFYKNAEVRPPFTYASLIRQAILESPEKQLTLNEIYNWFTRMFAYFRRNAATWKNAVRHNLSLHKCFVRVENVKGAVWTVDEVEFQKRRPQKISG
# Assay: PD-seq (MBP pull-down with sequencing); 20 mM Tris-HCl pH 7.5, 100 mM NaCl, 1.5 mM MgCl2, 0.4 uM protein, 0.1 uM dsDNA library, 30 min, room temperature, amylose pull-down; high values mean tight binding
# Settings: protein: recombinant; tags: His6-MBP; chain copies: 2; dsDNA, one strand shown
# Summary of the method: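 Protein and DNA were mixed at 0.4 µM and 0.1 µM and held for 30 min at room temperature in Tris pH 7.5 buffer with NaCl and MgCl2; the protein was a His6-MBP-tagged, N-terminally truncated mouse FoxP3 or FoxP1 fragment from E. coli, and the DNA a Klenow-filled double-stranded degenerate library. Amylose resin captured the complexes, which were washed three times. Binding is read as reads-per-million enrichment of pull-down versus input after Illumina sequencing, with replicates pooled.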
row,Sequence,binding signal
1,GATGATTGTTCTCCCAGCTGATGAATTTGGTTAATCGAGTAAACAAATTTTCCTAATCTTTCTGTTCAAGCGCCATCTAC,0.95 RPM ratio (pull-down/input)
2,GATGATTGTTCTCCCAGCTGATGAATTACGCGAATCGAGTAAACAAATTTTCCTAATCTTTCTGTTCAAGCGCCATCTAC,1.04 RPM ratio (pull-down/input)
3,GATGATTGTTCTCCCAGCTGATGAATTGCTCAACTCGAGTAAACAAATTTTCCTAATCTTTCTGTTCAAGCGCCATCTAC,0.995 RPM ratio (pull-down/input)
4,GATGATTGTTCTCCCAGCTGATGAATTCGGGCCATCGAGTAAACAAATTTTCCTAATCTTTCTGTTCAAGCGCCATCTAC,0.833 RPM ratio (pull-down/input)
5,GATGATTGTTCTCCCAGCTGATGAATTTATGTACTCGAGTAAACAAATTTTCCTAATCTTTCTGTTCAAGCGCCATCTAC,1.69 RPM ratio (pull-down/input)
6,GATGATTGTTCTCCCAGCTGATGAATTTAACGTATCGAGTAAACAAATTTTCCTAATCTTTCTGTTCAAGCGCCATCTAC,1.02 RPM ratio (pull-down/input)
7,GATGATTGTTCTCCCAGCTGATGAATTGACTACATCGAGTAAACAAATTTTCCTAATCTTTCTGTTCAAGCGCCATCTAC,1.22 RPM ratio (pull-down/input)
8,GATGATTGTTCTCCCAGCTGATGAATTATTATTGTCGAGTAAACAAATTTTCCTAATCTTTCTGTTCAAGCGCCATCTAC,3.2 RPM ratio (pull-down/input)
9,GATGATTGTTCTCCCAGCTGATGAATTCCCTAGGTCGAGTAAACAAATTTTCCTAATCTTTCTGTTCAAGCGCCATCTAC,0.768 RPM ratio (pull-down/input)
10,GATGATTGTTCTCCCAGCTGATGAATTCATGTGCTCGAGTAAACAAATTTTCCTAATCTTTCTGTTCAAGCGCCATCTAC,0.954 RPM ratio (pull-down/input)
11,GATGATTGTTCTCCCAGCTGATGAATTCTGGAAATCGAGTAAACAAATTTTCCTAATCTTTCTGTTCAAGCGCCATCTAC,0.932 RPM ratio (pull-down/input)
12,GATGATTGTTCTCCCAGCTGATGAATTATACGTATCGAGTAAACAAATTTTCCTAATCTTTCTGTTCAAGCGCCATCTAC,1.09 RPM ratio (pull-down/input)
13,GATGATTGTTCTCCCAGCTGATGAATTGACGTTCTCGAGTAAACAAATTTTCCTAATCTTTCTGTTCAAGCGCCATCTAC,1.09 RPM ratio (pull-down/input)
14,GATGATTGTTCTCCCAGCTGATGAATTGGAGTAGTCGAGTAAACAAATTTTCCTAATCTTTCTGTTCAAGCGCCATCTAC,0.835 RPM ratio (pull-down/input)
15,GATGATTGTTCTCCCAGCTGATGAATTAGGAGTTTCGAGTAAACAAATTTTCCTAATCTTTCTGTTCAAGCGCCATCTAC,0.859 RPM ratio (pull-down/input)
16,GATGATTGTTCTCCCAGCTGATGAATTTGTCCATTCGAGTAAACAAATTTTCCTAATCTTTCTGTTCAAGCGCCATCTAC,1.09 RPM ratio (pull-down/input)

row,Sequence,binding signal
1,GATGATTGTTCTCCCAGCTGATGAATTTTTCGCGTCGAGTAAACAAATTTTCCTAATCTTTCTGTTCAAGCGCCATCTAC,1.01 RPM ratio (pull-down/input)
2,GATGATTGTTCTCCCAGCTGATGAATTTAGATGATCGAGTAAACAAATTTTCCTAATCTTTCTGTTCAAGCGCCATCTAC,1.11 RPM ratio (pull-down/input)
3,GATGATTGTTCTCCCAGCTGATGAATTTTCGGCCTCGAGTAAACAAATTTTCCTAATCTTTCTGTTCAAGCGCCATCTAC,0.836 RPM ratio (pull-down/input)
4,GATGATTGTTCTCCCAGCTGATGAATTTACTTGCTCGAGTAAACAAATTTTCCTAATCTTTCTGTTCAAGCGCCATCTAC,1.28 RPM ratio (pull-down/input)
5,GATGATTGTTCTCCCAGCTGATGAATTACCTCCGTCGAGTAAACAAATTTTCCTAATCTTTCTGTTCAAGCGCCATCTAC,0.935 RPM ratio (pull-down/input)
6,GATGATTGTTCTCCCAGCTGATGAATTCCCGAGCTCGAGTAAACAAATTTTCCTAATCTTTCTGTTCAAGCGCCATCTAC,0.712 RPM ratio (pull-down/input)
7,GATGATTGTTCTCCCAGCTGATGAATTATATCTTTCGAGTAAACAAATTTTCCTAATCTTTCTGTTCAAGCGCCATCTAC,0.985 RPM ratio (pull-down/input)
8,GATGATTGTTCTCCCAGCTGATGAATTTGGGGAGTCGAGTAAACAAATTTTCCTAATCTTTCTGTTCAAGCGCCATCTAC,0.823 RPM ratio (pull-down/input)
9,GATGATTGTTCTCCCAGCTGATGAATTGCCTTCGTCGAGTAAACAAATTTTCCTAATCTTTCTGTTCAAGCGCCATCTAC,0.924 RPM ratio (pull-down/input)
10,GATGATTGTTCTCCCAGCTGATGAATTATACATCTCGAGTAAACAAATTTTCCTAATCTTTCTGTTCAAGCGCCATCTAC,1.13 RPM ratio (pull-down/input)
11,GATGATTGTTCTCCCAGCTGATGAATTCTACCTCTCGAGTAAACAAATTTTCCTAATCTTTCTGTTCAAGCGCCATCTAC,0.819 RPM ratio (pull-down/input)
12,GATGATTGTTCTCCCAGCTGATGAATTACACGCTTCGAGTAAACAAATTTTCCTAATCTTTCTGTTCAAGCGCCATCTAC,1.14 RPM ratio (pull-down/input)
13,GATGATTGTTCTCCCAGCTGATGAATTCAGGGGTTCGAGTAAACAAATTTTCCTAATCTTTCTGTTCAAGCGCCATCTAC,0.822 RPM ratio (pull-down/input)
14,GATGATTGTTCTCCCAGCTGATGAATTCGCGCGTTCGAGTAAACAAATTTTCCTAATCTTTCTGTTCAAGCGCCATCTAC,0.955 RPM ratio (pull-down/input)
15,GATGATTGTTCTCCCAGCTGATGAATTCCCATACTCGAGTAAACAAATTTTCCTAATCTTTCTGTTCAAGCGCCATCTAC,0.85 RPM ratio (pull-down/input)
16,GATGATTGTTCTCCCAGCTGATGAATTTACTTGATCGAGTAAACAAATTTTCCTAATCTTTCTGTTCAAGCGCCATCTAC,1.23 RPM ratio (pull-down/input)
